Measured values taken from a compilation of properties of binary mixtures (doi:10.1016/j.jct.2019.105906).
The densities may have been worked out from excess volumes.

Experiment: xn = mol fraction of the nth substance listed
Details: 100 kPa

CCOC(C)=O + CCCC[n+]1ccn(C)c1.F[P-](F)(F)(F)(F)F
x2 = 0
Details | mass density [kg/m3]
303.15 K | 888.6
308.15 K | 882.4
313.15 K | 876.2
318.15 K | 870
323.15 K | 863.8

CCCC[n+]1ccn(C)c1.F[P-](F)(F)(F)(F)F + CCOC(C)=O
mass density [kg/m3]
Details | x1 = 0.1012 | x1 = 0.1992 | x1 = 0.312 | x1 = 0.3985 | x1 = 0.5056 | x1 = 0.5996 | x1 = 0.7054 | x1 = 0.7963 | x1 = 0.9185 | x1 = 1
298.15 K | 996.2 | 1073.5 | 1143.7 | 1187.6 | 1233.1 | – | 1298.7 | 1322.4 | 1350.2 | 1367.2
303.15 K | 990.5 | 1068 | 1138.5 | – | – | – | 1294.5 | 1318.1 | – | 1363
308.15 K | 984.9 | 1062.5 | – | – | – | 1258 | 1290.3 | – | 1341.5 | 1358.7
313.15 K | 978.9 | – | 1128.3 | 1173 | 1219.5 | 1253.7 | 1286.1 | 1309.7 | – | –
318.15 K | 973.1 | – | 1123.1 | 1168.2 | – | 1249.4 | 1281.9 | – | – | –
323.15 K | 967.5 | 1046.1 | 1118 | 1163.3 | – | 1245.1 | 1277.7 | 1301.2 | 1328.5 | 1346
